Assay [1] addresses LEF1 (human (endogenous in MKN28)) (UniProt Q9UJU2). As to the kind of experiment: co-IP; MKN28 cells; lysates in NP-40 lysis buffer (10% glycerol, 0.5% NP-40, 125 mM NaCl, 1 mM EDTA, 20 mM Tris-Cl pH 8.0); precipitated with the indicated antibodies on Dynabeads Protein G overnight at 4 °C; detected with Flag antibody.
The target in assay [2] is β-catenin (CTNNB1) (human (endogenous in MKN28)) (UniProt P35222). Described as above.
For assay [3], the target named is TCF4/TCF7L2 (human (endogenous in MKN28)) (UniProt Q9NQB0). The assay is described as above.
In a further assay the target is mCherry-LEF1 (UniProt Q9UJU2). As to the kind of experiment: dual-color fluorescence cross-correlation spectroscopy (FCCS); live cells co-expressing GFP- and mCherry-tagged proteins; measured in the nuclei at 25 °C; relative cross-correlation amplitude; cells co-expressing GFP and mCherry as negative control.
In another assay the target is mCherry-TCF4 (UniProt Q9NQB0). Described as above.

Chains of the proteins cited; added tags and fusions are not shown.
UniProt Q9UJU2: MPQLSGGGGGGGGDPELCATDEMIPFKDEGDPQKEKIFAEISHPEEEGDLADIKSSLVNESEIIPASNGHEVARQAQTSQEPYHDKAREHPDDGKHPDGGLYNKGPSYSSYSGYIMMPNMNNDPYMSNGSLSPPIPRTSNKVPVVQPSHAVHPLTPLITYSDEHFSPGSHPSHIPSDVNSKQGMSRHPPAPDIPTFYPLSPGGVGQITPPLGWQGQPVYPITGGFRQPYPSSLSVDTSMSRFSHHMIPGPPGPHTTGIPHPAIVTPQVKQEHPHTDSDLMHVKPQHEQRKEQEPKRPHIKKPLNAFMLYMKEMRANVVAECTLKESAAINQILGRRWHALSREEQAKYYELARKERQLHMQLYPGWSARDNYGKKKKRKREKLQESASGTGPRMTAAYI
UniProt P35222: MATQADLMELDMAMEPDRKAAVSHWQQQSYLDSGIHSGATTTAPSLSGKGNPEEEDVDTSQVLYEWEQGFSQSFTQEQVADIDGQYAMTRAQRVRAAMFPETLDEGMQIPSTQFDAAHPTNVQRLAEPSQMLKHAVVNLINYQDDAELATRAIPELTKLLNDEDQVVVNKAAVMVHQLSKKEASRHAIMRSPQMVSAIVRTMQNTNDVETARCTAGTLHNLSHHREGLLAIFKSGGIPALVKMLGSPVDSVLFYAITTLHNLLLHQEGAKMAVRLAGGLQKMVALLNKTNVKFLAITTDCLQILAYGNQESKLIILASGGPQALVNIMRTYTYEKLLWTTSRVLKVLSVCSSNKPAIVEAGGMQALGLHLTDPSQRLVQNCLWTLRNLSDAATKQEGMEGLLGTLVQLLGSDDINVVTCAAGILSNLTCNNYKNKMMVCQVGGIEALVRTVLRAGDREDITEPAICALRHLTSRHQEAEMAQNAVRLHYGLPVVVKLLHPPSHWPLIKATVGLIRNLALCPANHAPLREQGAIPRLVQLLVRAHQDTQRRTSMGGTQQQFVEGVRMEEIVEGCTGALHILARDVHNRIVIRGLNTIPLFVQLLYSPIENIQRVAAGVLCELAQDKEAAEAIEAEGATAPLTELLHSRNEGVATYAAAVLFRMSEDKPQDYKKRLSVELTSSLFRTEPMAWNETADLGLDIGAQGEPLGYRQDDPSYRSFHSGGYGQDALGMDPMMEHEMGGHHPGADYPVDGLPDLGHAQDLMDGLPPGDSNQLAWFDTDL
UniProt Q9NQB0: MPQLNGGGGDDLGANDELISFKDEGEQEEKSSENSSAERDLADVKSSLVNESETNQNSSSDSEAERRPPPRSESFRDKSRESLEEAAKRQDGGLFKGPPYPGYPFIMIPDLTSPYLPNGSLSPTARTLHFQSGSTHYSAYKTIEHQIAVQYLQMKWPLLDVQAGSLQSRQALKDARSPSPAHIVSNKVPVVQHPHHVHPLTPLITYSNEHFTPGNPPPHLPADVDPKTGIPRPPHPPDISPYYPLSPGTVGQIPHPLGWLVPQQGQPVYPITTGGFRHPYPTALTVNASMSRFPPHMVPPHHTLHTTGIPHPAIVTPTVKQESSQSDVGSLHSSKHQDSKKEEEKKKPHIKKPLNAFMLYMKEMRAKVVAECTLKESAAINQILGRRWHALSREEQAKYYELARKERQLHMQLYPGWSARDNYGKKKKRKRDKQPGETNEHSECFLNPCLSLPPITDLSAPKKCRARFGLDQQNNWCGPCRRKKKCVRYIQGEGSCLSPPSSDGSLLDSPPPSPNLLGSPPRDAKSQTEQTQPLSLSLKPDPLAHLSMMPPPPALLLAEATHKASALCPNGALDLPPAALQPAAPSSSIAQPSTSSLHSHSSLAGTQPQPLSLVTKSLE

These are yes or no findings as the source states them, for the method shown. For some assays here: Binding seen in cells or lysates may run through a third protein. Some binding calls cover weakened binding; strength is not graded here. Where a sequence is shown, tags or fusion partners need not be part of it.

B1: Flag-ESRRG (estrogen-related receptor gamma) (protein, UniProt P62508 1-458)
chain: MDSVELCLPESFSLHYEEELLCRMSNKDRHIDSSCSSFIKTEPSSPASLTDSVNHHSPGGSSDASGSYSSTMNGHQNGLDSPPLYPSAPILGGSGPVRKLYDDCSSTIVEDPQTKCEYMLNSMPKRLCLVCGDIASGYHYGVASCEACKAFFKRTIQGNIEYSCPATNECEITKRRRKSCQACRFMKCLKVGMLKEGVRLDRVRGGRQKYKRRIDAENSPYLNPQLVQPAKKPYNKIVSHLLVAEPEKIYAMPDPTVPDSDIKALTTLCDLADRELVVIIGWAKHIPGFSTLSLADQMSLLQSAWMEILILGVVYRSLSFEDELVYADDYIMDEDQSKLAGLLDLNNAILQLVKKYKSMKLEKEEFVTLKAIALANSDSMHIEDVEAVQKLQDVLHEALQDYEAGQHMEDPRRAGKMLMTLPLLRQTSTKAVQHFYNIKLEGKVPMHKLFLEMLEAKV
On to B1, for which the values for the binding entry in assay [1], in assay [2] and in assay [3] were “binds”, “no binding” and “binds”, respectively.

B2: GFP-ESRRG (protein, UniProt P62508 1-458)
chain: B1 chain
In the case of B2, the binding result in the assay with mCherry-LEF1 and with mCherry-TCF4 was “binds” in each case.

The record behind these values is article PMC5954140.
